Test results from paper PMC4336329 (PLoS ONE, 2015).
Hit rate of the full screen: of about 310,000 compounds, about 2,200 (0.71%) showed an effect of 50% or more. The effect is printed as a negative number. Some of the results follow.

biological target: human ether-à-go-go-related gene (hERG) potassium channel (human, UniProt Q12809); assay: primary screen, population patch clamp on CHO cells stably expressing hERG
Sequence (Q12809 whole entry, looked up): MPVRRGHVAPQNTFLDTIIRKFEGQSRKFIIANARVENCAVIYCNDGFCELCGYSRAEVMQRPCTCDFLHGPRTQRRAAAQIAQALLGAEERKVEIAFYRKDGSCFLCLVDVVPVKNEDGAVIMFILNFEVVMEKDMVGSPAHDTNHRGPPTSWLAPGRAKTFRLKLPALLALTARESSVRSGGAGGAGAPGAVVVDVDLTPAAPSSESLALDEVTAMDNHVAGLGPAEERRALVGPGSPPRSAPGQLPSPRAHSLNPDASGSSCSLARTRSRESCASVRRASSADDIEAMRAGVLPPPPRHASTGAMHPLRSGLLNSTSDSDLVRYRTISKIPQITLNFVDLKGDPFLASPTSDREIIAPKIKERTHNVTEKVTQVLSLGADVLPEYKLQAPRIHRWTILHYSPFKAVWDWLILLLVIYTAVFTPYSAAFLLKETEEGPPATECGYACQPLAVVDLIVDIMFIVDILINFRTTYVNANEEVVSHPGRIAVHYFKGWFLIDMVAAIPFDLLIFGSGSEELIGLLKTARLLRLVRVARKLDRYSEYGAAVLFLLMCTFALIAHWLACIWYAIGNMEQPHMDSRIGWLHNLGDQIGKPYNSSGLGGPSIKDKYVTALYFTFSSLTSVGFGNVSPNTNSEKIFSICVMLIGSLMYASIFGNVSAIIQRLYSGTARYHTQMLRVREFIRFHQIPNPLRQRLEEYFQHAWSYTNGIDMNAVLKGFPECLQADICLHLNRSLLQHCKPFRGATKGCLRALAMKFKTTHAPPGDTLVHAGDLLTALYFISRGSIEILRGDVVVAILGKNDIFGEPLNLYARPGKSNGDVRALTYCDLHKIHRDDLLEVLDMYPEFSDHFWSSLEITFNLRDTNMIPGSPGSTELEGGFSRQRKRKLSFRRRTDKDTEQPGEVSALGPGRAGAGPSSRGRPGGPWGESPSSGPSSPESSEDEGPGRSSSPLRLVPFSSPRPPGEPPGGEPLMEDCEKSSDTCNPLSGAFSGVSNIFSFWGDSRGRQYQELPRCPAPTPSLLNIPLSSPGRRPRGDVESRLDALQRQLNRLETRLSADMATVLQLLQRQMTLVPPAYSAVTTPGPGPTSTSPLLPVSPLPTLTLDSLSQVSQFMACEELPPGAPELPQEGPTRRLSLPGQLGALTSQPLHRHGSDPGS

Row | Compound | hERG current change (%, negative = inhibition) at 1uM
1 | Cc1cc(O)c(NC(=O)c2ccc(C)c([N+](=O)[O-])c2)cc1C | 13.7%
2 | Cc1ccc(N(CC(=O)Nc2ccc(F)cc2)S(=O)(=O)N2CCCC2)cc1 | 4.05%
3 | COc1ccc(-c2cc(C(F)(F)F)nc(SCC(=O)NCc3cnn(C)c3C)n2)cc1OC | 7.19%
4 | O=C(CCn1c(=O)oc2ccccc21)Nc1cccc([N+](=O)[O-])c1 | 13.7%
5 | Cc1ccn2cc(-c3cnoc3C)nc2c1 | 10.6%
6 | O=C(Nc1cccc(O)c1)c1cccc(C(=O)Nc2cccc(O)c2)c1 | 20.2%
7 | COC(=O)c1cc(Br)ccc1N(Cc1cc(OC)cc(OC)c1)S(C)(=O)=O | 16.2%
8 | Fc1cc(Br)cc(F)c1NC(=S)N1CCOCC1 | 4.04%
9 | Cc1cc(C(=O)CCC(=O)N2CCN(c3ccccc3O)CC2)c(C)s1 | 3.14%
10 | O=C(Nc1nnc(Cc2ccccc2)s1)C1CCC1 | 13%
11 | CN(NC(=O)c1ccccc1)c1nc2ccccc2nc1C(F)(F)F | 2.3%
12 | Cc1ccc2[nH]c(C(=O)Nc3ccc(F)cc3)cc2c1 | 13%
13 | O=S(=O)(NN1CCOCC1)c1cc(Cl)cc(Cl)c1O | 12.3%
14 | Nc1ccccc1C(=O)N(Cc1ccccc1)Cc1ccccc1 | 2.11%
15 | O=C(NNc1nc2c(F)cccc2s1)C1=COCCO1 | 16.5%
16 | CN(Cc1cnccn1)C(=O)C1CCC(=O)N(CCc2ccc(Cl)cc2)C1 (centres unmarked) | 0.628%
17 | COc1ccc(/C=N/NC(=O)Nc2ccc3nsnc3c2)c(OC)c1 | 4.71%
18 | COc1ccc([C@H]2CC(=O)C=C(c3cc4ccccc4s3)C2)cc1 | 8.5%
19 | Nc1ccc2nc(SCc3cccc(F)c3)sc2c1 | 7.94%

Row | Compound | hERG current change (%, negative = inhibition) at 1uM
20 | CCc1ccccc1NC(=O)C1=CC(c2ccc(OC)c(OC)c2)=NS(=O)(=O)N1C | 9.71%
21 | Cc1nn(C)cc1CN(C)C(=O)c1cc(-c2ccccc2)nc2ccc(Br)cc12 | 12.6%
22 | CN(CC(=O)NCc1ccco1)S(=O)(=O)c1ccc2c(c1)c(=O)n(C)c(=O)n2C | 5.04%
23 | COC(=O)c1ccc2nc(C)cc(Nc3ccccc3C)c2c1.Cl | -26%
24 | COc1ccc(C(CNC(=O)c2cccc(S(=O)(=O)N3CCCCC3)c2)N2CCCC2)cc1 (centres unmarked) | -3.66%
25 | FC(F)(F)c1ccc(/C=N/NC(=S)NC2CCCCC2)cc1 | 4.96%
26 | Cc1cccc(NC(=O)c2sc(NC(=O)COc3ccccc3)c(C#N)c2C)c1C | 11.8%
27 | CCc1noc(C)c1C(=O)N(C)CC(=O)Nc1ccc(F)c(F)c1F | 14.2%
28 | COc1ccc(OC)c(NC(=O)COC(=O)C2CCN(C(=O)c3ccc(Cl)cc3)CC2)c1 | -49.1%
29 | COc1ccccc1CCC(=O)NNC(=O)c1ccc(Br)cc1 | 9.37%
30 | O=C(Cn1cnc2ccccc21)N/N=C/c1ccccc1 | 4.49%
31 | COc1ccc2nc(NCc3ccccc3)[nH]c2c1 | -7.49%
32 | O=C(NC(=S)Nc1cccc2c(O)cccc12)c1cccc(Br)c1 | 8.92%
33 | O=C(COc1ccccc1)N1CCN(S(=O)(=O)c2ccc(Br)cc2)CC1 | -0.677%
34 | CC(C(=O)N1CCCC1)c1ccc([N+](=O)[O-])cc1 (centres unmarked) | 12.1%
35 | COc1ccc(N(C(=O)CNC(=O)c2ccco2)C(C(=O)NCC2CCCO2)c2ccccc2)c(OC)c1 (centres unmarked) | 13%
36 | CCn1cc(C(=O)Nn2cnnc2)c(=O)c2ccc(C)nc21 | 7.71%
37 | O=[N+]([O-])c1ccccc1NCc1ccccc1Cl | -5.53%
38 | CCN(CC)C(=O)c1ccc(-c2nnc(Nc3cccc(O)c3)c3ccccc23)cc1 | 14.2%

Row | Compound | hERG current change (%, negative = inhibition) at 1uM
39 | Cc1onc(-c2c(Cl)cccc2Cl)c1C(O)c1ccccc1 (centres unmarked) | 10.6%
40 | Cc1nnc(SCC2=C(C(=O)O)N3C(=O)C(NC(=O)Cn4cnnn4)C3SC2)s1 (centres unmarked) | 10.4%
41 | CN(C)c1ccc(N=Nc2ccccc2C(=O)OCC(=O)N(C)c2ccccc2)cc1 | 10.5%
42 | CCCCN(CC)CCNC(=O)c1nn(-c2ccc(OC)cc2)c(=O)c2c1c1ccccc1n2C | 2.97%
43 | COc1ccc(Cn2c(=O)c3[nH]cnc3n(-c3ccc(C)cc3)c2=O)cc1 | 1.13%
44 | Cc1ccc(-n2ccnc(SCC(=O)NC3CCCC3)c2=O)cc1Cl | 10.1%
45 | O=C(Cc1ccccc1)NCc1nc2ccccc2[nH]1 | -2.39%
46 | CC(=O)NC(=S)Nc1ccc(S(=O)(=O)N(C)Cc2ccccc2)cc1 | 11.1%
47 | O=C1/C(=C/c2ccc3c(c2)OCO3)CCC/C1=C\c1ccc2c(c1)OCO2 | 9.14%
48 | CCOC(=O)CNC(=O)Cn1cnc2c(nnn2-c2ccc(F)cc2)c1=O | -1.18%
49 | CC(=O)c1cccc(NC(=O)N2CCCC2C(=O)NCc2ccc(F)cc2)c1 (centres unmarked) | 4.83%
50 | CC1CCCN(S(=O)(=O)c2ccc(NC(=O)[C@@H]3CCCN3C(=O)c3cccs3)cc2)C1 (some centres unmarked) | 5.35%
51 | Br.O=C(CN1CCSC1=NCc1ccccc1)c1ccc(Cl)c(Cl)c1 | 10.5%
52 | CC(=O)c1cc(-c2ccccc2)n(CC(=O)N2CCCCC2)c1C | 4.18%
53 | OC1(c2ccc(F)cc2)CC2CCC(C1)N2Cc1nnnn1C1CCCCC1 (centres unmarked) | 7.99%
54 | Cc1ccccc1NC(=O)Cc1c(O)c2ccccc2[nH]c1=O | 4.48%
55 | CC(C)(C)c1ccc(C(=O)OCC(=O)NCc2ccco2)cc1 | 6.2%
56 | CC(OC(=O)c1cccc(S(=O)(=O)N2CCCCC2)c1)C(=O)NC1CCCCC1C (centres unmarked) | -8.47%
